According to the supplement of paper PMC11417369:
± gives the standard deviation of the averaged measurements. The list shows a part of the results.

Test system: PfAP2-LT AP2 domain (GST-tagged)
Assay: gcPBM binding intensity (ln(normalized median fluorescence intensity)); higher = stronger DNA binding
Outline: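 DNA-binding domains from P. falciparum, fused to GST and produced in E. coli, were put on an Agilent 4 × 180k double-stranded probe array for 1 h in 1× PBS holding 1% milk, 0.2 mg/ml BSA, 0.5% salmon testes DNA and 0.03% Triton X-100. Probes were primer-extended, 36 bp long and drawn from intergenic genomic regions, with negative controls included. After Alexa488 anti-GST antibody detection and a 488 nm scan, binding intensity was set as the highest Masliner-normalised natural-log median intensity across replicate spots of either probe orientation.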

Sequence | gcPBM binding intensity (ln)
CACGCGAACATACATACACACACATATATATATATG [CACACA_site7951] | 9.69 ± 0.35
CAAAATATATATACCACACACACATACCTCTATTTG [CACACA_site1853] | 9.775 ± 0.078
ATATATTTTTTCTTAACACACATATATAAAATAAAA [CACACA_site3500] | 8.41 ± 0.41
TATATATATATATACACACACACACCGATATATATA [CACACA_site8813] | 10 ± 0.11
TATATAAAAAAACAAAGTACATGTTCTTAATCATTT [XGTACX_site8446] | 8.63 ± 0.39
AAATGAACAAGTGGCACACACACATCATAACTAATT [CACACA_site5730] | 9.57 ± 0.39
TATAATATAAGGATCACACACAAACACCCATATATA [CACACA_site4468] | 9.56 ± 0.18
TCCATAAAAATGGATACACACACATAATATATATAT [CACACA_site9207] | 9.36 ± 0.37
TTAATAACAAAATAAACACACATATATAAATACCCA [CACACA_site4960] | 9.11 ± 0.4
CATACATACATACATACACACATACCTATATTTATA [CACACA_site6769] | 9.38 ± 0.33
CTAGCAAATACATACACACACACACCGATACAGATA [CACACA_site5853] | 9.8 ± 0.18
ATATATACATATATTACACACTTCTTATTCTAAGAA [CACACA_site3022] | 8.77 ± 0.44
TATTTCATGATACAATGTACATGTATATATGATACC [XGTACX_site5057] | 8.88 ± 0.3
AATAATATATATTACACACGCATCGTTCATTTATTT [CACACA_site2391] | 9.34 ± 0.37
TTTGAAATAAGCAAATGTACATTATTATTAAATATA [XGTACX_site6158] | 8.45 ± 0.4
TTGCCCATTTAATTAACACACAAATGTTTATATTCT [CACACA_site6488] | 9.01 ± 0.49
TGTATGATAACTATAGTGCATTTGGTAATTTTTCCA | 8.6 ± 0.48
TTCACATACAGAAACACACACATATATATAAATTAA [CACACA_site3705] | 9.17 ± 0.34
AAAAAAAAAAAAAAAAAAAAAAAAAAAAAAAAAAAG [CACACA_negctrl_site292] | 8.705 ± 0.035
TCAAGAGTTATATAAACACACATACATACAGACATA [CACACA_site6998] | 9.11 ± 0.3
TAAGAAATTGAGCGCACACATACATCTGTGGGATGG [CACACA_site1548] | 9.39 ± 0.38
ATTGTGGATATTCTTACACACAAATTTATTTATAAA [CACACA_site7267] | 8.63 ± 0.4

Sequence | gcPBM binding intensity (ln)
TTTTTTTCTTCTTTTCTCTTAAAAATATTGAATATT [CACACA_negctrl_site1762] | 8.27 ± 0.58
ATGTAAATATTTTGTATGCACTTTGATGCATCTTTT | 8.93 ± 0.43
AGTATTCATAAAAATACACACATGGAAAAATAAAAT [CACACA_site1454] | 9.27 ± 0.52
ATATATATATAATAAGTGCAAAAAAAAGAAAAAAAT | 8.99 ± 0.47
GTTTTCTAGTGGGGGTGTACATATTTATATTTAATA [XGTACX_site8378] | 9.88 ± 0.16
AGCAAAAAAAAAAAAAAAAAAAAAATAATAAAAAAT [TGCATGCA_negctrl_site202] | 8.48 ± 0.82
CATATATTAATATGTACACACATTAATAAAAAAAAA [CACACA_site7504] | 8.88 ± 0.46
TTTTTTTTTTTTGAGGTGCATATATCAGATCAATAT | 8.46 ± 0.45
AGCCACTTAAAATACACACACACCAAAAAAAAAAAA [CACACA_site5497] | 9.71 ± 0.49
TATTTTATTTATTGAAGTACATTATACAAAAATAAA [XGTACX_site4824] | 8.14 ± 0.32
AAATAAAATAAAATACGTACCTATTGTGCGTATTAA [XGTACX_site2912] | 8.57 ± 0.43
TAATAAATGTTATTAGTGCATAATAGATAATATATT | 8.75 ± 0.42
ATTTTAACTCCCCTTAATCTATTGTATATATATATA [CACACA_negctrl_site208] | 8.88 ± 0.29
AATAATTTCCAAAAATGTACATATATTTACATATAT [XGTACX_site1790] | 8.81 ± 0.33
TATTCGAACAAAAATACATGCACATATGCATAATAA [TGCATGCA_site171] | 8.72 ± 0.42
TTTTCCAGTAAATATTTTTTTATAATATTTATATAT [CACACA_negctrl_site387] | 8.36 ± 0.48
AATGAAAAAAAAAAAAAAAAGAAGAAGCAAATGGTA [TGCATGCA_negctrl_site335] | 8.7 ± 0.52
AGATTATTTGGACATGCATGTAAAAAAATACGTATA [TGCATGCA_site972] | 9.14 ± 0.43
ATAAATAATTATATATGTACACATTATGAATGGATA [XGTACX_site8336] | 8.93 ± 0.38
TATGTGTATTTATTTGCATGTTGGTTGTATTTTTTC [TGCATGCA_site479] | 9.21 ± 0.45
TCTTCATATGTTTACTGTACGAGAAAAAAAAAAAAA [XGTACX_site6418] | 8.33 ± 0.4
TAATAAAATAAAAATTGTACATTTTATATTTATCAA [XGTACX_site5134] | 8.23 ± 0.46
